Laboratory results published in the supplement of paper PMC11417369.
± gives the standard deviation of the averaged measurements. This is one part of the list.

These sequences were tested on PfAP2-G AP2 domain (GST-tagged) (assay: gcPBM binding intensity (ln(normalized median fluorescence intensity)); higher = stronger DNA binding).
How it was run: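 After 1 h on an Agilent 4 × 180k array of primer-extended double-stranded 36-bp intergenic genomic probes and negative controls, bound GST-tagged P. falciparum DNA-binding domains were detected with Alexa488 anti-GST antibody and scanned at 488 nm. The domains had been expressed in E. coli, and binding took place in 1× PBS with 1% milk, 0.2 mg/ml BSA, 0.5% salmon testes DNA and 0.03% Triton X-100. Binding intensity is the highest Masliner-normalised natural-log median intensity across replicate spots of either probe orientation.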

Point of comparison: “TAAATCCGTTTGATGGGTACATACATACATACATAT [XGTACX_site8889]”, “gcPBM binding intensity (ln)” value 11.2 ± 0.79. Against it:
- TCGTCACTTTAATATTGTACATATATATATATATAT [XGTACX_site8046] — within error, 11.1 ± 0.65
- ATATATATATGTGCCAGTACACATGTATACATTATA [XGTACX_site3899] — the same, 11.2 ± 0.57
- GATATATATATTCACACACACATGGAAATATATATA [CACACA_site382] — lower, 9.88 ± 0.028
- AATATTTTGAACAACAGTACTCTTTCTTTCTTTCTT [XGTACX_site7212] — within error, 10.9 ± 0.54
- TCCTTTTCATCTTGTAGTACGGAAATGTAGCTCCAA [XGTACX_site8563] — within error, 11.1 ± 0.61
- TATATGTATTTATATACACACATATTCTTTTTACAC [CACACA_site8320] — within error, 10.2 ± 0.3
- TATATCTACTTAAAAAGTACGTAAATTATAAGCTAT [XGTACX_site6420] — within error, 11.1 ± 0.74
- TGTGTAAATATGTATACACACATATCTGATCAATAT [CACACA_site7507] — lower, 10.1 ± 0.14
- TATGTATAACTCAATGCATGCGAAGGACTATTATTT [TGCATGCA_site222] — within error, 10.2 ± 0.23
- AATATTGTTCACAAGGTGCTTTTTATTCATACTAAT — lower, 10.01 ± 0.028
- GATTAAAACTTTAACTGTACATAATAATTATCAATC [XGTACX_site5938] — within error, 11 ± 0.61
- TTTAAAATTTCTTAATGTACGTAATAAAAAAAAAAA [XGTACX_site4037] — within error, 11.4 ± 1.2
- ACCTCACAAATGAATACACACAAACATATAGATTTA [CACACA_site6862] — lower, 10.1 ± 0.25
- ATATATAAAATTATATGTACATATATCTATTTATAA [XGTACX_site3713] — the same, 11.2 ± 0.68
- TTTTCCTTTTTTTTTACATGCAGATATAGAAAGGTA [TGCATGCA_site106] — within error, 10.1 ± 0.43
- TTGTTTTGGATTATCACACATATAATATATACTCAT [CACACA_site4780] — lower, 10.06 ± 0.035
- AAATACATAACTTAAAATTTGTTCATATCTATACAT [TGCATGCA_negctrl_site249] — lower, 9.88 ± 0.18
- TATAATAATATGGATTGTACATATATATTTAATTAA [XGTACX_site4327] — within error, 10.8 ± 0.55
- AATTAAATATTATAAACACACATATAGATTATTTTT [CACACA_site6538] — lower, 9.91 ± 0.13
- ATTTTAAATATGGAATGTACTTAAAAAAAATTTCAT [XGTACX_site5058] — within error, 11.1 ± 0.81
- ATTTCTTATTAAATTACACACAAAGTAAATAAATCT [CACACA_site3924] — lower, 9.965 ± 0.064
- GTAATTTTTTTCTATACACACATATCTATAATATAT [CACACA_site7284] — lower, 10.2 ± 0.13
- TACTTATAATTTCAATGTACATATATATAATATCAT [XGTACX_site2424] — within error, 11 ± 0.61
- ACAATAAAATATGGCACACATATATATATATATTTA [CACACA_site3] — lower, 10.2 ± 0.2
- ATTTATTTTAGTAAAGCACACGTGTAAAATATATCT [CACACA_site4820] — within error, 10.4 ± 0.2
- AACACCCATGGACACACACACATATATATATATATA [CACACA_site5809] — within error, 10.8 ± 0.6
- TTTTTATAAGCATAAAGTACAAATATTTTTTAGTTG [XGTACX_site4140] — within error, 11 ± 0.59
- AAAAAAAAAAAAAAAAAATACATATACATTTGTGCA [CACACA_negctrl_site1431] — within error, 10.5 ± 0.26
- TTTTTATTTATATATAAGGAAAATGCGGTATATATT [CACACA_negctrl_site1770] — lower, 10.2 ± 0.16
- TCTTTTTTGAACTAGCGTACATGAAAATATTTATAG [XGTACX_site7359] — within error, 11.4 ± 1
- TTATTACATATAAAGGAAAATAGCATCTAGATTAAA [XGTACX_negctrl_site435] — lower, 9.82 ± 0.014
- CATATTTCTTACATTTGTACTTAATAAAATTAATCA [XGTACX_site7224] — within error, 11 ± 0.63
- AAAAAAATTTATAAATATTTTATTAATATATTTACC [GTGCAC_negctrl_site690] — lower, 9.51 ± 0.2
- CATATATAAAAAAACACACACATATTTATATTTATA [CACACA_site6682] — lower, 9.895 ± 0.064
- ACACAAAACAAAAAGGTGCTGTATAAATGGGTGTAT [GTGCAC_site9905] — lower, 10.1 ± 0.085
- TTTTTATACAACTTATAATACATCTGAAAATATAAA [XGTACX_negctrl_site36] — lower, 9.93 ± 0.11
- TTGTCTGACTAATTTTTTTCTGTTTGTACGTTCTTA [GTGCAC_negctrl_site602] — the same, 11.2 ± 1
- TATCACATATTATGATGTACAAGGTTTCTGACTAAT [XGTACX_site2763] — within error, 10.9 ± 0.55
- ATAATTATACATATTACACACTCTCTTGATCTTTTT [CACACA_site3853] — lower, 9.87 ± 0.11
- ACAAAATAAATATGAACACACACATTTATGCCTTTA [CACACA_site8346] — lower, 9.84 ± 0.16
- AAACATTTAAATGGAAACACAGAAAAATGAAAAATG [CACACA_negctrl_site457] — within error, 10.4 ± 0.2
- TTTTTTTTTTGTAATACACACCACTATATGTTATTT [CACACA_site5087] — lower, 9.985 ± 0.007
- ATATATATATATACATGTACATATATACATTATATT [XGTACX_site936] — within error, 11 ± 0.57
